# Experimental data published in the antibiotic and cytotoxicity screens of Wong et al. (2023).
# The list shows a part of the results.
# System: HSkMC (human skeletal muscle cells)
# Test: cytotoxicity call (relative viability < 0.9)
# Conditions: 10 µM
row,Compound,cytotoxicity call
1,Nc1nc(=O)n([C@@H]2O[C@H](CO)[C@@H](O)[C@@H]2F)cc1I,inactive
2,COc1ccc(NC(=O)Nc2ccc3c(c2)C(=O)N([C@@H](C)CO)C[C@H](C)[C@@H](CN(C)CC2CC2)OCCCC[C@H](C)O3)cc1,inactive
3,CC(CCc1ccc(O)cc1)NCC(O)c1ccc(O)cc1.Cl (stereo not given),inactive
4,COc1ccccc1NC(=O)N(C)C[C@@H]1Oc2ncc(C#CC(C)C)cc2C(=O)N([C@@H](C)CO)C[C@H]1C,inactive
5,Cc1noc(C)c1NC(=O)Nc1ccc2c(c1)C(=O)N([C@@H](C)CO)C[C@H](C)[C@H](CN(C)S(=O)(=O)c1cccs1)OCCCC[C@H](C)O2,inactive
6,COc1ccc(NC(=O)N(C)C[C@H]2OCCCC[C@@H](C)Oc3ccc(NC(=O)CCC(F)(F)F)cc3C(=O)N([C@@H](C)CO)C[C@H]2C)cc1,inactive
7,C[C@H](CO)N1C[C@H](C)[C@@H](CN(C)Cc2ccc(C(=O)Nc3ccccc3N)cc2)OCc2cn(nn2)CCCC1=O,inactive
8,C[C@@H]1O[C@@H](O[C@H]2[C@H](O[C@H]3[C@H](O)[C@@H](C(=O)O)O[C@@H](O[C@H]4CC[C@]5(C)[C@H]6CC[C@]78OC[C@@]9(CCC(C)(C)C[C@@H]97)[C@H](O)C[C@@]8(C)[C@]6(C)CC[C@H]5C4(C)C)[C@@H]3OC3O[C@H](CO)[C@@H](O)[C@H](O)[C@H]3O)O[C@H](CO)[C@H](O)[C@@H]2O)[C@H](O)[C@H](O)[C@H]1O (stereo not given in full),active
9,C[C@H](CO)N1C[C@H](C)[C@H](CN(C)Cc2cccnc2)Oc2cc(C#CCN(C)C)ccc2S1(=O)=O,inactive
10,CC(=O)Nc1c(I)c(C(=O)N[C@@H]2[C@@H](O)[C@H](O)[C@@H](CO)O[C@@H]2O)c(I)c(N(C)C(C)=O)c1I,inactive
11,C[C@@H]1CN([C@@H](C)CO)C(=O)c2cc(NC(=O)CCCCCC(=O)Nc3ccccc3N)ccc2O[C@H]1CN(C)CC1CCCCC1,inactive
12,Cc1noc(C)c1S(=O)(=O)N(C)C[C@@H]1Oc2ccc(NC(=O)CCC(F)(F)F)cc2CC(=O)N([C@H](C)CO)C[C@H]1C,inactive
13,C[C@@H]1CN([C@@H](C)CO)C(=O)c2cccc(NC(=O)Nc3ccc4c(c3)OCO4)c2O[C@H]1CN(C)Cc1ccc(Cl)c(Cl)c1,inactive
14,C[C@@H]1CN([C@H](C)CO)C(=O)c2cccc(NC(=O)c3cnccn3)c2O[C@H]1CN(C)S(=O)(=O)c1ccc(F)cc1,inactive
15,COc1ccc2c3c([nH]c2c1)[C@H](CO)N(C[C@]13CN(CC2CCOCC2)C1)C(=O)Nc1c(noc1C)C,inactive
16,C[C@H](CO)N1C[C@H](C)[C@H](CN(C)C(=O)Nc2ccc(-c3ccccc3)cc2)OCc2ccccc2-c2c(n(C)c3ccccc23)C1=O,active
17,COc1ccc(C#Cc2ccc3c(c2)O[C@@H](CN(C)C(C)=O)[C@@H](C)CN([C@H](C)CO)S3(=O)=O)cc1,inactive
18,COc1cccc(-c2ccc3c(c2)O[C@@H](CN(C)C(=O)C2CCOCC2)[C@H](C)CN([C@@H](C)CO)S3(=O)=O)c1,inactive
19,COCCNC(=O)C[C@H]1CC[C@H]2[C@@H](COc3ccc(NS(=O)(=O)c4ccc(Cl)cc4)cc3C(=O)N2C)O1,inactive
20,Cc1ccc(S(=O)(=O)N(C)C[C@@H]2Oc3ccc(NS(C)(=O)=O)cc3CC(=O)N([C@H](C)CO)C[C@@H]2C)cc1,inactive

row,Compound,cytotoxicity call
1,C[C@@H]1CN([C@@H](C)CO)C(=O)Cc2cc(NC(=O)Nc3ccc(C(F)(F)F)cc3)ccc2O[C@H]1CN(C)Cc1ccc(-c2ccccc2)cc1,active
2,C[C@@H]1CN([C@H](C)CO)S(=O)(=O)c2ccc(C#CCN(C)C)cc2O[C@@H]1CN(C)S(C)(=O)=O,inactive
3,CC(C)NC(=O)N(C)C[C@H]1OCCCC[C@H](C)Oc2ccc(NC(=O)C3CCCCC3)cc2C(=O)N([C@@H](C)CO)C[C@@H]1C,inactive
4,Cn1cccc1[C@@H](CN)N1CCc2ccccc2C1,inactive
5,O=C(C[C@H]1C=C[C@H](NS(=O)(=O)c2ccccc2F)[C@H](CO)O1)NCCCN1CCOCC1,inactive
6,C[C@H]1CCCCO[C@@H](CN(C)Cc2ccccc2)[C@@H](C)CN([C@@H](C)CO)C(=O)c2cc(NS(=O)(=O)c3ccccc3)ccc2O1,inactive
7,C[C@@H]1CN([C@@H](C)CO)S(=O)(=O)c2ccc(C#CCN(C)C)cc2O[C@H]1CN(C)C(=O)c1ccccc1F,inactive
8,CC(C)=CCCC(C)=CCO,inactive
9,C[C@@H]1CCCCO[C@H](CN(C)C(=O)CCCN(C)C)[C@@H](C)CN([C@H](C)CO)C(=O)c2cc(NS(C)(=O)=O)ccc2O1,inactive
10,O=C([O-])CCC(=O)OCC(NC(=O)C(Cl)Cl)C(O)c1ccc([N+](=O)[O-])cc1.[Na+] (stereo not given),inactive
11,CN(C)C(=O)N1CCC2(CC1)CC1(CCN(S(=O)(=O)C3CC3)CC1)N(C)C2=O,inactive
12,Cc1ccc(S(=O)(=O)N[C@@H](Cc2ccccc2)C(=O)NCCCn2cc(CN3C(=O)COC[C@H]3c3ccccc3)nn2)cc1,inactive
13,COc1ccc2c3c([nH]c2c1)[C@@H](CO)N(C[C@]13CN(Cc2ccccc2)C1)S(=O)(=O)c1cn(cn1)C,inactive
14,Cc1noc(C)c1S(=O)(=O)Nc1ccc2c(c1)C(=O)N([C@@H](C)CO)C[C@H](C)[C@@H](CN(C)C(=O)Nc1ccc(C(F)(F)F)cc1)OCCCC[C@@H](C)O2,inactive
15,COCC(=O)Nc1ccc2c(c1)C(=O)N(C)[C@@H]1CC[C@@H](CC(=O)NC3Cc4ccccc4C3)O[C@@H]1CO2,inactive
16,C[C@@H]1CCCCO[C@H](CN(C)Cc2ccc(C(F)(F)F)cc2)[C@H](C)CN([C@H](C)CO)C(=O)c2cc(NS(=O)(=O)c3ccc(Cl)cc3)ccc2O1,inactive
17,C[C@H](CO)N1C[C@H](C)[C@H](CN(C)S(C)(=O)=O)OCCCC[C@H](C)Oc2ccc(N(C)C)cc2C1=O,inactive
18,C[C@@H]1CN([C@@H](C)CO)S(=O)(=O)c2ccc(Br)cc2O[C@@H]1CN(C)Cc1ccc(C(=O)O)cc1,inactive
19,COc1ccc(S(=O)(=O)Nc2ccc3c(c2)C(=O)N([C@H](C)CO)C[C@@H](C)[C@H](CN(C)Cc2ccc4c(c2)OCO4)OCCCC[C@@H](C)O3)cc1,inactive
20,COc1ccc(-c2cnc3c(c2)C(=O)N([C@@H](C)CO)C[C@@H](C)[C@H](CN(C)C(=O)Cc2ccncc2)O3)cc1,inactive
